Measured values as given in the supplement of paper PMC8813932.
Counter-ions that a name gives are not always drawn. Some of the results follow. Many values rest on one well or one pass, so single values are uncertain.

System: Ov4Carbo
Assay: log2 surviving fraction relative to plate median (drug vs vehicle, or drug+dl922-947 vs dl922-947 alone); ovarian cancer lines: OVCAR4 is platinum-sensitive while Ov4Cis resists cisplatin and Ov4Carbo carboplatin; higher = more cell survival
Conditions: dl922-947 oncolytic adenovirus co-treatment: MOI 10; compound concentration: 10 uM; 192 h

| Compound | log2 surviving fraction |
| --- | --- |
| NCCCC(O)(P(=O)(O)O)P(=O)(O)O [Alendronate (Fosamax)] | 0.882 |
| NCCc1c[nH]c2ccc(O)cc12 [Serotonin HCl] | 0.931 |
| COc1ccc(CC2c3cc(OC)c(OC)cc3CC[N+]2(C)CCC(=O)OCCCCCOC(=O)CC[N+]2(C)CCc3cc(OC)c(OC)cc3C2Cc2ccc(OC)c(OC)c2)cc1OC (stereo not given) [Atracurium besylate] | -0.146 |
| Nc1nc(F)nc2c1ncn2[C@@H]1O[C@H](COP(=O)(O)O)[C@@H](O)[C@@H]1O [Fludarabine Phosphate (Fludara)] | 0.262 |
| NCC[C@H](O)C(=O)N[C@@H]1C[C@H](N)[C@@H](O[C@H]2O[C@H](CN)[C@@H](O)[C@H](O)[C@H]2O)[C@H](O)[C@H]1O[C@H]1O[C@H](CO)[C@@H](O)[C@H](N)[C@H]1O [Amikacin sulfate] | 0.169 |
| O[C@@H]1CO[C@H]2[C@@H]1OC[C@@H]2O [Isosorbide] | -0.355 |
| C=C[C@H]1CN2CC[C@H]1C[C@H]2[C@H](O)c1ccnc2ccc(OC)cc12 [Quinine hydrochloride dihydrate] | 0.812 |
| Fc1ccc(C(c2ccc(F)cc2)N2CCN(C/C=C/c3ccccc3)CC2)cc1 [Flunarizine 2HCl] | -1.47 |
| CC(=O)[C@H]1CC[C@H]2[C@@H]3C[C@H](C)C4=CC(=O)CC[C@]4(C)[C@H]3[C@@H](O)C[C@]12C [Medrysone] | 1.16 |
| O=C(NC(Cc1cc(=O)[nH]c2ccccc12)C(=O)O)c1ccc(Cl)cc1 (stereo not given) [Rebamipide] | 0.406 |
